172 sequences from PMC6212790 can be followed below.

The list shows a part of the results. At the low end of the ranking the order means little.

The target in this assay is T1, GST-Rok-C97-191 (UniProt O34857).
T1 sequence: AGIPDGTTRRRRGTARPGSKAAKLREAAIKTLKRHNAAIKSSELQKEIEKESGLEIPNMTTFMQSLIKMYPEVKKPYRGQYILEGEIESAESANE
The assay is described as follows: protein binding microarray.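 Also: rank score from −0.5 (least bound) to 0.5 (best bound).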 To be noted: Rok is a gene silencer of Bacillus subtilis; high values mean tight binding; most listed sequences are background and not binding sites; double strand, one strand shown.
Take ACTGAAAG: the binding signal was -0.103 E-score. Next, GAGTTTGA: -0.16 E-score; CGCACCCG: -0.217 E-score; GTGAACAC: -0.175 E-score. Next, CCGCAGTC: -0.245 E-score; AAAGGGTT: -0.0515 E-score; CGTAACGC: -0.183 E-score. The same measure for CGGTTTTC: -0.165 E-score; for ATCGCACG: -0.0954 E-score. TGATTTAA showed a binding signal of 0.0609 E-score.

As for CAAAACCC, the binding signal is -0.187 E-score. Next, ATAGAGTC: -0.12 E-score; GGCCTACA: -0.0664 E-score; GGTTGGAA: -0.0495 E-score. CGCGCATC: the binding signal is -0.196 E-score. Next, CATATCCG: 0.176 E-score. The same measure for AGACGGCG: -0.219 E-score. Next, CACTATGC: 0.159 E-score. On to TGCGCCAA, for which the binding signal is -0.134 E-score. AGCCCACG: the binding signal was -0.147 E-score. Next, CTTGTGCA: 0.052 E-score. The same measure for AATGATCA: 0.156 E-score; for CCCGGCGC: -0.345 E-score; for GTGCAAGA: 0.0658 E-score. On to GTCTAAAC, for which the binding signal stood at 0.00715 E-score.

In the case of AATTGTAA, the binding signal was determined as 0.256 E-score.

The sequence AGTACCAT showed a binding signal of 0.288 E-score.

ATCTTATG had a binding signal of 0.18 E-score. Next, ACCACAAC: 0.109 E-score. The same measure for ACTACAGT: 0.181 E-score; for CTCTATTA: 0.246 E-score. Turning to GACATTGA, the binding signal is -0.00156 E-score. The same measure for ATACTCAT: -0.00471 E-score; for CTCCCTGC: -0.203 E-score. Next, GAAACTAC: 0.46 E-score. The same measure for CTTCGCGC: 0.074 E-score; for CGTTGAAC: -0.0772 E-score; for CCCTTCTA: -0.0641 E-score. For CAGCACCC, the binding signal is -0.108 E-score. The same measure for GCTGTTTA: 0.0646 E-score; for CCGTTCAA: -0.00922 E-score. Next, GATTGTGC: 0.0266 E-score; TACCGTCA: 0.139 E-score; AGGCTGCC: -0.323 E-score. The same measure for AATTCTAC: 0.421 E-score; for CCATAAGC: -0.139 E-score.

On to CAACCACG, for which the binding signal is -0.0255 E-score. The sequence CCTATGTA came in with a binding signal of 0.302 E-score. The same measure for AGAACCGC: 0.0835 E-score; for ACCAACGC: -0.181 E-score; for GACCCTCC: -0.311 E-score. The same measure for CACGTACC: -0.173 E-score.

In the case of CACCTGCG, the binding signal is -0.0845 E-score.

AGTGAACT returned a binding signal of 0.0759 E-score. In the case of GCGAGCCC, the binding signal is -0.0925 E-score. The same measure for GCGTGCGA: -0.227 E-score; for GGCCTTTA: -0.116 E-score.

ACGCTAAG gave a binding signal of 0.0377 E-score. In the case of AAGCTTGA, the binding signal is -0.261 E-score.

Sequence GCGAGTTA had a binding signal of 0.0475 E-score.

As to CCAAGAAA, the binding signal came out at 0.168 E-score.

ATACCTGA came in with a binding signal of 0.0452 E-score. The same measure for CTAGACTA: 0.0281 E-score; for AAACCGAG: -0.189 E-score. The same measure for CTAAAGTA: 0.208 E-score. Next, AAGCGGTA: 0.057 E-score; GACGTGAA: 0.0747 E-score; GGTCAGTA: 0.125 E-score. As for CCCTCGAA, the binding signal was -0.133 E-score. The same measure for AACCCTCG: -0.166 E-score. The same measure for AAATACTC: 0.205 E-score; for ACCCGCAA: -0.0817 E-score. Next, CACGCTCG: -0.126 E-score. Consider ACACCCCA, for which the binding signal was -0.112 E-score. The same measure for AGGAAGGA: -0.123 E-score; for CTTAAAAC: 0.0491 E-score.

Turning to AATACCAT, the binding signal was 0.292 E-score.

For AATCCGGC, the binding signal came to 0.0531 E-score. Take CGCAATAG: the binding signal was 0.121 E-score. The same measure for TCATTGGA: -0.125 E-score; for ATCATATC: 0.139 E-score. Next, AACCAAAC: -0.132 E-score; AATACCCA: 0.199 E-score; ACCCCGGG: -0.28 E-score.

In turn, GTTAGGAA yielded a binding signal of 0.056 E-score. Next, GAAAGGCC: -0.322 E-score; CACACACC: 0.000506 E-score. For CACCATCA, the binding signal is -0.0781 E-score. As to ATTCGCCA, the binding signal was -0.031 E-score.

On to GAATGGAA, for which the binding signal was -0.13 E-score. The same measure for CTAACCGC: -0.0984 E-score; for GGATTGAC: -0.054 E-score; for TCGTGCAA: -0.08 E-score. The same measure for AGATATAA: 0.282 E-score.

For the sequence CTGGCCGC, the binding signal is -0.238 E-score. ATAGGTGC gave a binding signal of 0.0718 E-score. As to CGGAAATA, the binding signal amounted to 0.151 E-score. Next, CATTAGGC: -0.163 E-score; AGGCGCAT: -0.286 E-score. The same measure for CGATCGTC: -0.0949 E-score. Turning to ATTTACGG, the binding signal is 0.216 E-score. The same measure for AAAGCGCA: -0.00813 E-score. Next, AGGATAAA: -0.0584 E-score. With AAAGCTGA, the binding signal was -0.147 E-score. Next, CTAGATCA: 0.199 E-score; TGGCGCCA: -0.435 E-score. Next, CACTGCTC: -0.167 E-score; GGGATAAA: 0.0651 E-score. Next, GGGACGCA: -0.299 E-score; AAAACTTG: -0.0585 E-score; AAAAAATG: -0.032 E-score. Turning to CCAAATAC, the binding signal was 0.137 E-score. Take CAGGCACA: the binding signal is -0.112 E-score. Next, ACGGGCAT: -0.0946 E-score; CGCTTATA: 0.194 E-score. Next, GGGTGGCA: -0.252 E-score; CCAAAGCG: -0.105 E-score. The same measure for GCTCTATA: 0.0788 E-score; for ACCGTCTA: -0.0436 E-score. Turning to ACGCAAGC, the binding signal amounted to 0.0464 E-score. The same measure for ACCAAATA: 0.219 E-score; for ATTAAGAG: 0.0634 E-score; for AAGCAAAG: -0.131 E-score.

For the sequence AGACGTTG, the binding signal was -0.222 E-score. Next, GGGTCCCA: -0.368 E-score. For ATCTCGTA, the binding signal came out at 0.151 E-score. Next, CACAGGGA: -0.088 E-score. Next, ACATGCGC: -0.242 E-score; GTTATTCA: 0.014 E-score.

On to CAAAACAA, for which the binding signal was -0.0275 E-score. The same measure for AACGTCCG: -0.13 E-score; for GATGTTGC: -0.123 E-score; for TAACGTGA: 0.0636 E-score. Next, TGCAGGCA: -0.177 E-score; CAAAACAG: 0.067 E-score; GATTCCCA: 0.00937 E-score. For the sequence AGGCGCTG, the binding signal was -0.169 E-score. The same measure for GGGAGTTA: -0.0419 E-score. GATAGCTA came in with a binding signal of 0.367 E-score. The same measure for AGACAATG: 0.00834 E-score; for AGGTAGTG: -0.0194 E-score; for AGGCCCGC: -0.197 E-score. GTAGAGAC yielded a binding signal of 0.164 E-score. Next, GCTAGCGA: -0.0168 E-score; GTATAGTA: 0.25 E-score. In the case of AGGTTCAT, the binding signal was -0.153 E-score. Next, ACCCGGTA: 0.254 E-score; AGTGGATC: -0.0369 E-score; GGGATATA: 0.233 E-score. The same measure for ACAGTCTC: -0.113 E-score; for CACGATTC: -0.05 E-score; for TTTACAAA: 0.212 E-score. The sequence ATTTATTG registered a binding signal of 0.2 E-score. Next, AGTTCTTC: -0.0494 E-score; TCGCAACA: -0.0722 E-score. As for CTGCGGAA, the binding signal was -0.125 E-score. The same measure for CCAGAGAG: -0.143 E-score; for GACGTTAC: 0.0544 E-score. Next, GATGTACC: 0.118 E-score.

Turning to TGTTCTAA, the binding signal was found to be 0.0945 E-score. Next, CGTCTTAG: -0.159 E-score; ATTTAACG: 0.173 E-score. The same measure for CACTCTGA: -0.177 E-score; for AACATCCT: 0.0847 E-score.

As to TAGCGACA, the binding signal is -0.0369 E-score. The same measure for CCGCGAAC: 0.101 E-score; for TAAGACTA: 0.0426 E-score. The same measure for AGCGCACT: -0.0109 E-score. The same measure for ATGTAATC: 0.101 E-score.

Consider GGGACCAA, for which the binding signal was -0.294 E-score. Regarding CCACCGGC, the binding signal was -0.195 E-score.

TAGTTACA: the binding signal stood at 0.292 E-score.
